assay: soluble on expression in E. coli; label from the status in PepcDB or PDB records

| Sequence | soluble on expression in E. coli |
| --- | --- |
| AHHHHHHASAKWVCKICGYIYDEDAGDPDNGISPGTKFEELPDDWVCPICGAPKSEFEKLEDGSIRRRKKVRKLRGSHTHGWGCKKKHRGGGSKGGRGMAGTGKRNKSKWTWTIKYAPDHLGKRGFSRPPEVQREVRVVNLKFIDEHLDELMQMGIAYEEGGKIIVDVTQFADKVLGTGKLTRPLVIKARAFSPKAEEKIKAAGGEAVLV | soluble |
| MKMKTKIFRVKGKFLMGDKLQPFTKELNAIREEEIYERLYSEFGSKHRVPRSKVKIEEIEEISPEEVQDPVVKALVQR | not soluble |
| MRIINADGLILGRLASRVAKMLLEGEEVVIVNAEKAVITGNREVIFSKYKQRTGLRTLTNPRRGPFYPKRSDEIVRRTIRGMLPWKTDRGRKAFRRLKVYVGIPKEFQDKQLETIVEAHVSRLSRPKYVTVGEVAKFLGGKF | soluble |
| MSDYFSKLKEHVVESTEINGCTPSIATATFNAPYEVARKTKMLGVTDSSLLNLPAWKRLQSLYEKYGNDSILSHFEKDHQRFQRYSIEIDLHSDDNFLFLDYSKSHINDEIKDALVALAEERGVRAFAKAMFDGQRVNSTENRAVLHVALRNRSNRPIIVDGKDVMSDVNNVLAQMKDFTERVRSGEWKGQTGKSIYNIVNIGIGGSDLGPVMVTEALKPFSKRDLHCFFVSNVDGTHMAEVLKQVNLEETIFIIASKTFTTQETLTNAMSARNALMSYLKENGISTDGAVAKHFVALSTNTEKVREFGIDTVNMFAFWDWVGGRYSVWSAIGLSVMLSIGYDNFVEFLTGAHVMDNHFASTPTEQNLPMMLALVGIWYNNFFGSETQAVLPYDQYLWRLPAYLQQLDMESNGKGVTKKSGAVAVQTGPIVFGEAGTNGQHAFYQLIHQGTKIIPCDFIGCVQTQNRVGDHHRTLMSNFFAQTEALMVGKNAEEVRQELVKSGMSGDAIENMIPHKTFTGSRPSNSILVNALTPRALGAIIAMYEHKVLVQGAIWGINSYDQWGVELGKVLAKSILPQLKSGNIVSDHDGSTNGLINMFNTRAHL | soluble |
